Reference: PubChem BioAssay AID602310 (National Center for Advancing Translational Sciences (NCATS), 2012)
Among all 410,000 compounds or so, about 310 (0.076%) were called active. The shares of active, inactive and inconclusive entries below differ from those in the screen. The call rests on the fitted dose curve; in most records, active means well fitted curve in the direction sought with a large enough effect; inconclusive means small, poorly fitted or top-dose-only effect; inactive means flat fitted curve, though single readings scatter. Potencies of inconclusive entries are doubtful fits and often do not repeat.

target: DNA dC->dU-editing enzyme APOBEC-3G (Homo sapiens) (UniProt Q9HC16); assay: qHTS for Inhibitors of Vif-A3G Interactions: qHTS; settings: HeLa A3G-eYFP + Vif (tagged APOBEC3G with the HIV-1 protein that degrades it), YFP fluorescence, overnight; series mostly up to 46.1 µM; further: nearly all actives have a fitted effect of over 60% in size
Chain of UniProt Q9HC16 (Q9HC16 whole entry, looked up): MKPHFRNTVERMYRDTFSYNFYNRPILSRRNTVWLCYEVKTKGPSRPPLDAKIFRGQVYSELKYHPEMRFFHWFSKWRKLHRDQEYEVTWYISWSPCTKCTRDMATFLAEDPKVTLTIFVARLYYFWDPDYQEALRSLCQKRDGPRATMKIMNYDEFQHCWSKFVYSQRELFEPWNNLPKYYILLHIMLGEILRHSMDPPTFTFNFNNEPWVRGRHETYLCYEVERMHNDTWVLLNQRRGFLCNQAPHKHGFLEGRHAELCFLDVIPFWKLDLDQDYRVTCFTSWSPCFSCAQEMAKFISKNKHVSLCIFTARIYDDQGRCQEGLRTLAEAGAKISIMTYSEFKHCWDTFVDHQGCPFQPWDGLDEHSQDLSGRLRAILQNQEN
Summary of the method: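 Read-out is eYFP fluorescence (Ex 488/Em 500-530) from Vif-expressing HeLa A3G-eYFP cells; more signal means A3G escaped Vif-mediated degradation. Cells plated overnight, compound pinned in, incubated overnight at 37 deg C.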
Potency means the concentration at half of the fitted maximal effect; tags describe the fitted curve by direction and shape.

SMILES	Potency
CC(C)c1ccc(N2C(=O)NC(=O)/C(=C/c3cnc(-c4ccccc4)nc3)C2=O)cc1	inconclusive: 35.5 µM [inhibitor, single point]
CC1=Nc2ccccc2/C1=C/c1c(O)n(C)c(=O)[nH]c1=O	inactive
CCOc1ccccc1N1C(=O)NC(=O)/C(=C/c2ccc3c4c(cccc24)CC3)C1=O	inactive
COC(=O)C1=Nc2ccccc2/C1=C\c1c(O)n(-c2ccc(OC)cc2)c(=O)[nH]c1=O	inactive
C=CCn1c(=O)c(C=Nc2cccnc2Cl)c(O)n(CCCC)c1=O	inconclusive: 25.1 µM [inhibitor, single point]
Cc1nc2ccc(Cl)cc2c(=O)n1-c1ccccc1Cl	inconclusive: 25.1 µM [inhibitor, single point]
CC(C)n1c(O)c(C2c3cc(Cl)ccc3Oc3[nH]c(=O)n(C(C)C)c(=O)c32)c(=O)[nH]c1=O (stereo unspecified)	inactive
COc1ccc(CN2C(=O)NC(=O)/C(=C\c3cccc(OC)c3OC)C2=O)cc1	inactive
N#CC(C#N)=Cc1ccc(N2CCCC2)cc1	inconclusive: 22.4 µM [inhibitor, single point]
O=C1C=C2C=C[C@@H]3CC2(O1)[C@H]1CCCCN31	inconclusive: 35.5 µM [inhibitor, single point]
CCN1C(=O)C(=Cc2c(C)n(CC(=O)NCC3CCCO3)c3ccccc23)C(=O)N(CC)C1=S (stereo unspecified)	inconclusive: 35.5 µM [inhibitor, single point]
CCc1ccc(N2C(=O)NC(=O)/C(=C\C=C\c3ccco3)C2=O)cc1	inconclusive: 28.2 µM [inhibitor, single point]
O=C1NC(=O)C(=Cc2c(Cl)cccc2Cl)C(=O)N1	inactive
Nc1ccc(Cl)cc1C(=O)c1ccccc1Cl	inconclusive: 25.1 µM [inhibitor, single point]
COc1ccc(C(=O)Nc2ccc3c(c2)N(C)C(=O)c2ccccc2S3)cc1OC	inconclusive: 1.58 µM [inhibitor, full curve, poor fit]
O=C1NC(=O)C(CCc2ccncc2)(Cc2cccc(Cl)c2Cl)C(=O)N1c1ccc(Br)cc1 (stereo unspecified)	inconclusive: 1.26 µM [inhibitor, full curve, poor fit]
CN1C(=O)C(=Cc2sc(=O)n(-c3ccccc3)c2N(C)C)C(=O)N(C)C1=O	inconclusive: 25.1 µM [inhibitor, single point]
COc1ccc(CN2Cc3cnnn3-c3ccccc3C2C)cc1 (stereo unspecified)	inconclusive: 35.5 µM [inhibitor, single point]

SMILES	Potency
CCCCn1c(NC(=O)c2ccco2)c(C(=O)OCC)c2nc3ccccc3nc21	inconclusive: 12.6 µM [inhibitor, single point]
COC(=O)C1=C(c2ccc(OC(F)(F)F)cc2)C[C@@H]2CC[C@H]1N2C(=O)N1CCCCC1	inactive
CN1C(=O)NC(=O)/C(=C\C=C\c2ccccc2[N+](=O)[O-])C1=O	inconclusive: 35.5 µM [inhibitor, single point]
COc1cc(/C=C/[N+](=O)[O-])ccc1O	inconclusive: 12.6 µM [inhibitor, partial curve]
O=C1NC(=O)C(=Cc2ccccc2Oc2ccc(F)cc2)C(=O)N1	inactive
COc1cc(/C=C2\C(=O)NC(=O)N(c3ccccc3)C2=O)cc(OC)c1OC	inactive
CC(C)n1c(/C=C/[C@H](O)C[C@H](O)CC(=O)O)c(-c2ccc(F)cc2)c2ccccc21	inconclusive: 2.82 µM [inhibitor, full curve]
O=c1nc(/C=C/c2ccc(Cl)cc2Cl)cc(C(F)(F)F)[nH]1	inconclusive: 17.8 µM [inhibitor, partial curve, poor fit]
CCOc1ccc(-c2cc(C(=O)N3CCN(c4cccc(C(F)(F)F)c4)CC3)c3ccccc3n2)cc1	inconclusive: 2.82 µM [inhibitor, full curve, poor fit]
COc1ccccc1C=C1C(=O)NC(=S)NC1=O	inactive
CCOc1cccc(=NC2CCCCC2)c2c(C)n(C)c(C)c12	inactive
O=C(c1ccc2c(c1)ncn2C1CCCCC1)N1CCC2(CC1)OCCO2	inconclusive: 4.47 µM [inhibitor, full curve]
CC1Oc2cc3c(-c4c(O)cc(O)c5c(O)c6c(cc45)OC(C)C(C)C6=O)c(O)cc(O)c3c(O)c2C(=O)C1C (stereo unspecified)	inconclusive: 15.8 µM [inhibitor, single point]
Cc1ccc(Cn2c(C)c3cnn(CC(=O)N4CCC5(CC4)OCCO5)c(=O)c3c2C)cc1	inconclusive: 22.4 µM [inhibitor, single point]
COc1ccc(CN2C(=O)NC(=O)/C(=C/c3ccc([N+](=O)[O-])s3)C2=O)cc1	inconclusive: 35.5 µM [inhibitor, single point]
CCCOC(=O)c1c(C)oc2c1cc(NS(=O)(=O)c1ccc(OCC)cc1)c1ccccc12	inconclusive: 0.631 µM [inhibitor, full curve, poor fit]
Ic1ccccc1CN[C@@H]1C2CCN(CC2)[C@@H]1C(c1ccccc1)c1ccccc1	inactive
CCCCn1c(O)c(C(C)=NC(C)c2ccccc2)c(=O)[nH]c1=O (stereo unspecified)	inconclusive: 35.5 µM [inhibitor, partial curve, poor fit]
